Measured values reported in paper PMC6919601, “Identification of Plasmodium dipeptidyl aminopeptidase allosteric inhibitors by high throughput screening” (PLoS ONE, 2019).
Out of some 110,000 compounds screened, about 230 (0.21%) showed an effect of 50% or more. The list shows a part of the results.

Target: DPAP1 (Plasmodium falciparum, UniProt Q8IIJ9)
Experiment: primary screen, percent inhibition; read by cleavage of a fluorogenic dipeptide substrate; higher = more effect of the substance
Parameters: species or system P. falciparum D10 trophozoite lysates; single well
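Note: 30 min substrate incubation versus DMSO and 10 µM JCP410 controls.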

Sequence of DPAP1 (Q8IIJ9 whole entry, looked up): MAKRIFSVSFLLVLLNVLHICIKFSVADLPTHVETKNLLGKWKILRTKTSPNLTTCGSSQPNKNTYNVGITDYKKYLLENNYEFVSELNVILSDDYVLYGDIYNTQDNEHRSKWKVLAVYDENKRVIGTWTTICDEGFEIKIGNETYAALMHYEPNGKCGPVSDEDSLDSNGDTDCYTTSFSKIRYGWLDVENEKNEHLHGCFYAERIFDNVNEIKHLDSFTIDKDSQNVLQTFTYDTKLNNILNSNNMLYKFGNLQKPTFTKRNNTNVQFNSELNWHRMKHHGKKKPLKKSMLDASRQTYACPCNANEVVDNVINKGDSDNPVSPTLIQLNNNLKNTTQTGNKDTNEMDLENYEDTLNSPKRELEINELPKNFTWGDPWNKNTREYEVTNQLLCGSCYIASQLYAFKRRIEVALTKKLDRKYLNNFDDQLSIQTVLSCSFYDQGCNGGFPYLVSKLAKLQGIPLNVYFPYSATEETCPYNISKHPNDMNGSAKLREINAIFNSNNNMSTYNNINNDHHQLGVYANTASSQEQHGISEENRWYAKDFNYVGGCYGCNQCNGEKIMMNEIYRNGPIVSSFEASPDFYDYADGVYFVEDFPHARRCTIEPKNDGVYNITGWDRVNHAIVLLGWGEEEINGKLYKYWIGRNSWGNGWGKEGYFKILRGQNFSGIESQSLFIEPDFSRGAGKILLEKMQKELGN

| SMILES | % Inhibition @ 10 uM [%] |
| --- | --- |
| COc1ccc(CNC(=O)CC(NS(=O)(=O)c2ccc(Br)cc2)c2ccco2)cc1 (stereo not drawn) | 2.9 |
| COc1ccc(/C(O)=C/C=N/c2ccccc2C(=O)c2ccccc2)cc1 | -2.88 |
| COc1ccc(CCNC(=O)CCCn2ncn3c(cc4occc43)c2=O)c(OC)c1 | 3 |
| O=C1NC(=O)/C(=C\c2ccc(Cl)s2)N1 | -0.178 |
| Cc1ccccc1CN1CCN(CC(=O)NCCC2=CCCCC2)C1=O | -0.148 |
| O=C(O)CC(NCc1ccccc1)c1ccccc1 (stereo not drawn) | -5.85 |
| COc1ccc(-c2cc3nc4n(c(=O)c3s2)CCC4)cc1 | 1.08 |
| CCOC(=O)c1nn2c(C(F)(F)F)cc(-c3cccs3)nc2c1Cl | 4.52 |
| CCOC(=O)c1c(NC(=O)c2cccc(F)c2)sc(C(=O)NC2CCCC2)c1C | 0.565 |
| Cc1cc(C)n(-c2nnc(C)n2/N=C/c2ccsc2)n1 | 0.561 |
| CCOc1ccccc1CNc1ccc(O)cc1 | -2.83 |
| Cn1ncc(Cl)c1C(=O)N1CCN(c2cccc(Cl)c2)CC1 | -5.07 |
| Cc1cc(=O)n(C(=O)c2ccccc2)c(=O)n1C(=O)c1ccccc1 | 5.55 |
| CCCCCCCc1ccc(-c2noc(CCCCC)n2)cc1 | -6.78 |
| CN1CCC(N(C)Cc2ccc(Br)s2)CC1 | -2.56 |
| Cc1ccccc1Nc1cccc2nonc12 | -3.27 |
| CN1CCC(NCCN2CCCCC2)CC1 | 0.472 |
| COc1ccc(S(=O)(=O)NC2CC(C)(C)NC(C)(C)C2)c(C)c1C | -3.13 |
| O=S1(=O)C(/C=N/Cc2cccnc2)=C(O)c2sccc2N1Cc1ccc(F)cc1 | -4.41 |
| COc1ccc2cc3cc(C(=O)NCCCOC(C)C)sc3nc2c1 | -1.83 |
| N#Cc1cc2c(=O)n3ccccc3nc2n(CCCn2ccnc2)c1=N | -0.169 |
| CCOC(=O)C1CCN(C2CCC(CC)CC2)CC1 (stereo not drawn) | -3.15 |
| O=C(CSc1c2c(nc3ccc(Cl)cc13)CCCC2)NCCCN1CCCC1=O | -9.16 |
| Brc1ccc(COc2cccc3cccnc23)cc1 | 0.726 |
| CCOC(=O)C1=C(C)N=c2s/c(=C/c3cccnc3)c(=O)n2C1c1ccc(OC)cc1 (stereo not drawn) | 6.11 |
| Cc1cc(C)cc(NC(=O)c2ccc([N+](=O)[O-])o2)c1 | 3.48 |

| SMILES | % Inhibition @ 10 uM [%] |
| --- | --- |
| COc1ccc(CN2CCN(c3ccccc3OC)CC2)c(OC)c1 | 0.00519 |
| N#CCC(=O)N1CCN(C/C=C/c2ccccc2)CC1 | 2.08 |
| CCN1C/C(=C\c2ccc(OC)c(OC)c2)C(=O)/C(=C/c2ccc(OC)c(OC)c2)C1 | 4.06 |
| N#CC1(S(=O)(=O)c2ccccc2)CCCCC1 | 0.035 |
| COc1ccc(-c2ccccc2)cc1NCc1ccncc1 | -0.446 |
| CN1C(=O)C2(C(C#N)=C(N)N(c3cc(Cl)cc(Cl)c3)C3=C2C(=O)CCC3)c2ccccc21 (stereo not drawn) | 5.59 |
| CC1CCCCC1N1CN=C(Nc2nc3ccccc3o2)NC1 (stereo not drawn) | 3.73 |
| CCC(=O)c1cc2c(C)cc(=O)oc2c(C)c1OC | 1.25 |
| COc1ccc(CCNC(=O)Cn2nc(C)n3c(cc4c(OC)cccc43)c2=O)c(OC)c1 | -5.32 |
| O=c1oc2ccccc2n1CCc1ccccc1 | -0.968 |
| CCCn1c(CN2CCCC(C)C2)nc2c1c(=O)n(C)c(=O)n2C (stereo not drawn) | 2.9 |
| COc1cccc(CNc2ccc(C)c(C)c2)c1 | -7.11 |
| C=CCNc1nc2c(C)cccn2c(=O)c1/C=C1\SC(=S)NC1=O | 15.9 |
| CCCN1CCN(c2ccc(C(=O)NC3(C(=O)N[C@@H](CCc4ccccc4)CS(=O)(=O)Nc4ccc(OC)cc4)CCCCC3)cc2)CC1 | -6.46 |
| OCCCc1cn(Cc2ccccc2)c2ccccc12 | 1.54 |
| c1ccc2c(c1)nc(SC1CCCCC1)c1nncn12 | 3.99 |
| COc1ccc(Cn2c(CO)nc3ccccc32)cc1OC | -7.55 |
| CCOC(=O)c1c(NC(=O)C2=CC(c3ccc(C)cc3)=NS(=O)(=O)N2C)sc(C)c1C | -2.84 |
| CCN(CC)CCN(CC)Cc1cccc(Cl)c1Cl | 1.9 |
| Cc1ccc(S(=O)(=O)N(CC(=O)Nc2cccnc2)c2cccc(C(F)(F)F)c2)cc1 | -5.5 |
| O=C(c1ccco1)N1CCN(S(=O)(=O)c2c[nH]cn2)CC1 | -1.05 |
| CCC1CCc2c(sc(NC(=O)Nc3cccc(C)c3)c2C(N)=O)C1 (stereo not drawn) | -2.82 |
| O=C(NCCO)C(c1ccccc1)c1ccccc1 | 0.247 |
| O=C(NC1CCCCC1)c1ccc(C2SCC(=O)N2CCc2ccccc2)cc1 (stereo not drawn) | -1.18 |
| O=C(CCCOc1ccc(Cl)cc1)N1CCOCC1 | 0.222 |
| OC1(c2ccc(Br)cc2)CCN(C2CCSC2)CC1 (stereo not drawn) | -0.0908 |

| SMILES | % Inhibition @ 10 uM [%] |
| --- | --- |
| CCN1C(C(=O)c2ccccc2)=C(OC(=O)c2ccc(OC)c(OC)c2)c2ccccc2S1(=O)=O | 3.54 |
| CSc1ccc(C2C(C#N)=C(N)Oc3[nH]nc(C(C)(C)C)c32)cc1 (stereo not drawn) | 0.983 |
| CCCCNC(=O)CN(c1ccc(F)cc1)S(=O)(=O)c1ccccc1 | -5.46 |
| CC(=O)N1N=C(Cc2ccc(-c3ccccc3)cc2)OC12CCCC2 | 4.18 |
| COc1ccc(-c2cc(C(=O)Nc3ccc(S(N)(=O)=O)cc3)c3ccccc3n2)cc1OC | -0.999 |
| CN(C)c1ccc(/C=C/c2[nH]c(=O)[nH]c(=O)c2[N+](=O)[O-])cc1 | 2.6 |
| CCCc1cc(C(=O)NCCc2ccccc2)no1 | -0.591 |
| Cc1ccc(S(=O)(=O)NCC2CCC(C(=O)N3CCCCCC3)CC2)cc1 (stereo not drawn) | 6.95 |
| COc1ccc(C(C#N)Nc2ccccc2C)cc1 (stereo not drawn) | 4.98 |
| COc1ccc(NC(=S)/N=C(/NCS(=O)(=O)c2ccc(C)cc2)c2ccc(OC)cc2)cc1 | 3.56 |
| Cc1oc2c(C)c3oc(=O)c(CC(=O)N4CCOCC4)c(C)c3cc2c1-c1ccccc1 | 2.54 |
| CCC(C)NC(=O)c1cc(-c2ccccc2)[nH]n1 (stereo not drawn) | -1.26 |
| CCn1c2ccc(Br)cc2c2cc(NC(C)=O)ccc21 | 2.84 |
| COCC(C)NC(=O)c1cc(OC)cc(OC)c1 (stereo not drawn) | 0.163 |
| Cc1ccc(OCCCn2cc(C#N)c3ccccc32)cc1 | 2.01 |
| CCc1nc2ccccc2n1CCC(=O)O | -1.74 |
| CC(NC1CCN(Cc2ccccc2)CC1)c1ccc(F)cc1 (stereo not drawn) | -3.15 |
| CCOc1ccc2nc(Sc3ccc(C=C4C(=O)NC(=O)NC4=O)o3)sc2c1 | -2.39 |
| COc1ccc(-n2cc(Cl)nc(N[C@@H](C)c3ccccc3)c2=O)cc1 | -5.63 |
| CCC(=O)/C=C1\Sc2ccccc2N1CC | -8.22 |
| CCc1ccc(/C=c2\sc3nc(-c4ccccc4OC)nn3c2=O)cc1 | -1.18 |
| O=C(CSc1cccc2cccnc12)Nc1nc2c(ccc3ccccc32)s1 | 8.6 |
| NC1=NC(=O)/C(=C/c2ccc(-c3ccccc3Cl)o2)S1 | 1.96 |
| COc1ccc(CN2CCN(Cc3ccco3)CC2)c(OC)c1OC | -8.59 |
| CCC[C@@H](NC(=O)OCc1ccccc1)C(=O)NCC#N | 0.079 |
| Cc1ccc2nc(N3CCOCC3)c3nnnn3c2c1 | 2.82 |

| SMILES | % Inhibition @ 10 uM [%] |
| --- | --- |
| CCn1cc(NC(=O)NCc2ccc3c(c2)OCO3)c(=O)c2ccc(C)nc21 | 0.635 |
| CCc1c(N2CCOCC2)nc2n(c1=O)CCS2 | -1.15 |
| Cn1c(=O)c2nc(CN3CCN(CCO)CC3)[nH]c2n(C)c1=O | 0.627 |
| N#Cc1c(NC(=O)c2ccccc2)sc2c1CCCCC2 | -0.736 |
| NC(=O)c1cccc(NC(=O)c2ccccc2C(=O)O)c1 | -5.07 |
| CC(C)(C)NS(=O)(=O)c1cn(CC(=O)N2CCCC2)cc1S(=O)(=O)NC(C)(C)C | -5.48 |
| COC(=O)c1ccc(CSc2nc(O)c3cnn(-c4ccccc4)c3n2)o1 | 0.208 |
| COCCCNC(=O)c1cc2c(-c3ccc(Cl)cc3)nn(C)c2s1 | -4.96 |
| S=C1NCN(CCc2ccccc2)CN1CC1CCCO1 (stereo not drawn) | -3.74 |
| CC(=O)NC1CCCc2c1[nH]c1ccc(C)cc21 (stereo not drawn) | 1.26 |
| O=c1/c(=C/c2ccco2)sc2n1CN(c1ccccc1)CN=2 | 0.727 |
| CC1=C(C(=O)Nc2ccccc2C)C(c2cccs2)NC(S)=N1 (stereo not drawn) | 1.88 |
| COc1ccc(C(CC(=O)Nc2ccc(Cl)cc2)NC(=O)C(F)(F)F)cc1 (stereo not drawn) | -0.216 |
| Cc1c(C(=O)NCC2COc3ccccc3O2)oc2ccc(S(=O)(=O)N(C)C3CCCCC3)cc12 (stereo not drawn) | 9.56 |
| CCOc1ccc(Nc2nc(N)nc(CN3CC(C)CC(C)C3)n2)cc1 (stereo not drawn) | 0.408 |
| O=C(CSCc1cccc(Br)c1)Nc1cccc2ccccc12 | -1.91 |
| FC(F)Oc1ccc(C2C=C(c3ccccc3OC(F)F)Nc3ncnn32)cc1 (stereo not drawn) | 9.16 |
| O=c1/c(=C/c2ccccc2)sc2nc3ccc(Cl)cc3c(=O)n12 | 1.27 |
| C=CCn1c2ccccc2c2nnc(SCC(=O)Nc3nc(C)c(C(=O)OCC)s3)nc21 | 0.484 |
| COc1cc2c(cc1OC)C(C(=O)N(C)Cc1ccccc1)C(c1ccccc1F)N(C)C2=O (stereo not drawn) | 1.07 |
| O=c1oc(-c2ccccc2)nc2c1C1(CCCC1)Cc1ccccc1-2 | 3.42 |
| COc1ccc(NC(=O)C(C)c2cccc(C(=O)c3ccccc3)c2)cc1 (stereo not drawn) | 6.69 |
| COc1cc(CN2CCc3c([nH]c4ccccc34)C2)cc(OC)c1 | 1.38 |
| Cc1ccc2c(c1)-c1c(cnn1CC(=O)NCC1CCCO1)CO2 (stereo not drawn) | -4.34 |
